PubChem BioAssay (NCATS)
Some of the results follow. The main result of the screen is listed elsewhere. These columns were measured beside it and carry no call. Most of these compounds were active or inconclusive in the main read-out, so they are no random draw.

Assay: qHTS Assay for Lipid Storage Modulators (AID 1519)
Conditions: Drosophila S3 cells, BODIPY lipid droplet/cell ratio, laser cytometry; measured here: lipid channel max response; cells loaded with oleic acid
How it was run: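 Cells seeded at 5,000 per well were treated with compounds over a concentration series and loaded with oleic acid (400 uM, as added). Lipid droplet fluorescence (488 nm excitation, 500-530 nm channel) was read by laser-scanning cytometry and normalized to 20 uM Triacsin C.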

Structure (SMILES) | max response [%]
Cc1cccc(CNc2ncnc3ccc(-c4ccc(C(=O)N(C)C)cc4)cc23)c1 | 16.4
COc1ccc(-n2c(=O)c(-c3ccccc3)nc3cnc(N4CCNCC4)nc32)cc1 | 25
Cn1c(=O)c(-c2cc(F)cc(F)c2)nc2cnc(N3CCNCC3)nc21 | 30.5
Cn1cccc1C(=O)N1CCC2(CC1)CCN(c1cccc(-c3ccccc3)c1)CC2 | -32.5
O=C(c1ccco1)N1CCC2(CCCN(Cc3ccccc3)C2)CC1 | 32.8
CC(=O)OC1CC[C@@]2(C)C3CC[C@@]4(C)C(CC5O[C@@]6(CCC(C)CO6)C(C)C54)C3CC[C@@H]2C1 (some centres not stated) | 33.2
COc1ccc(-n2c(=O)c(C)nc3cncnc32)cc1 | 30.2
CC(C)c1cccc(O)c(=O)c1 | -34.3
CCn1cc(C(=O)O)c(=O)c2cc3c(cc21)OCO3 | 30
CCCN1CC(CSC)C[C@H]2c3cccc4[nH]cc(c34)C[C@H]21 (some centres not stated) | 33.5
CN(C)c1ncc2nc(-c3cc(F)cc(F)c3)c(=O)n(C)c2n1 | 34
Cn1c(=O)c(CCc2ccccc2)nc2cnc(N3CCNCC3)nc21 | 18.2
CN(C)c1ncc2nc(-c3cc(F)cc(F)c3)c(=O)n(Cc3ccc(F)cc3)c2n1 | 30.7
c1cncc(-c2ccc3ncnc(NC4CCNCC4)c3c2)c1 | 30.2
CC(=O)[C@]1(O)CCC2C3CC(C)C4=CC(=O)C=CC4(C)[C@@]3(F)C(O)C[C@]21C (some centres not stated) | 45.7
COc1ccc(NC(=O)N2CC[C@@]3(CCCN(C(=O)c4cccc(F)c4)C3)C2)cc1 | 20
COc1ccccc1CCn1c(=O)c(-c2ccc(F)cc2)nc2cncnc21 | 24.2
